The values that follow come from PMC10726135.

The other results are listed elsewhere or left out. At the low end of the ranking the order means little. The protein was read in a cell extract, so binding may be indirect.

This assay addresses T1, HNF4alpha2 (COS-7 nuclear extract) (UniProt P41235).
T1 sequence: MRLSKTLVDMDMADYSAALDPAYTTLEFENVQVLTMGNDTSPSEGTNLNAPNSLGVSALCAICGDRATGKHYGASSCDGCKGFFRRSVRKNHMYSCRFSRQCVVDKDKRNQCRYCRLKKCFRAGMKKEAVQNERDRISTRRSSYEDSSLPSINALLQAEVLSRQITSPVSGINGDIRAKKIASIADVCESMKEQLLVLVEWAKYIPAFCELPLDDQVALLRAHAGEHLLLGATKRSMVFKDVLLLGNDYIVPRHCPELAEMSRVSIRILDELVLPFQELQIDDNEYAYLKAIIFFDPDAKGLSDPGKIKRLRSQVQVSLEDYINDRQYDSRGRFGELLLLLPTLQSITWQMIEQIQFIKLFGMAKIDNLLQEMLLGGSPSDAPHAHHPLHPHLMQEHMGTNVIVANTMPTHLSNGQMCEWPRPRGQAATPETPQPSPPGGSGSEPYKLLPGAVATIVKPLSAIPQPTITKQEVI
Description: protein-binding microarray. The settings on record: COS-7 nuclear extract on double-stranded Agilent 4x180k PBM; binding buffer, salt, pH and temperature not given; high values mean tight binding; double strand, one strand shown; sequences stand for … in …GCCTAGGGAGATTAGAGTATCGGTCGA
In the case of TTGGACAGGGTGACGTCATTGGAAATCCGA, the binding signal (log2 normalized intensity) was -0.417.

Turning to ACTGATCTCTGGCTTGATCCCTGAACTTTG, the binding signal (log2 normalized intensity) was found to be 3.32.

CAGCACCATCCTACAGGGTATGAATTTAAC: the binding signal (log2 normalized intensity) is -1.07.

Consider AGTCAAGGCCAAAGGTTAAAAATAAGTTCT, for which the binding signal (log2 normalized intensity) is 3.45.

As for GAATCAGGTTTTCAGAAGGTAGGTAAGGGG, the binding signal (log2 normalized intensity) was 0.178.

Consider CCAATAACTGCTTCTTTTATGGTGCATTCC, for which the binding signal (log2 normalized intensity) was found to be 1.4.

Consider AAATCCCCCACCATTGTTATCTGATCAAAT, for which the binding signal (log2 normalized intensity) worked out at 3.37.

With CTGCCTCAAACAGCTTCGCCTCCTCCAAGC, the binding signal (log2 normalized intensity) was -1.13.

With ACAATGTGATTTATGAAGGGGGGTGGGGAG, the binding signal (log2 normalized intensity) is -1.17.

Turning to CAGACTGCATTTTCATCTTGCCTTTGCTCC, the binding signal (log2 normalized intensity) worked out at 1.06.

On to TTAGGAAAGAGACATCTGGGAACAAGTTCT, for which the binding signal (log2 normalized intensity) was -1.14.

As for CTATTAGGTCTTTGAAGTTGTCTTATCACC, the binding signal (log2 normalized intensity) came out at 1.34.

For AAAGGAGGCAGAGACTGCCCTGAGCCGCCA, the binding signal (log2 normalized intensity) is -1.12.

For the sequence AGTTTCAGGTTCAAATCTAAACCTAGCAGC, the binding signal (log2 normalized intensity) is -1.11.

As to GTTTCAGCCCTAAAGACCACTGGGCTTTCA, the binding signal (log2 normalized intensity) was -1.02.

AATGCAGGCAATGAATAGAACAAATAAAGT: the binding signal (log2 normalized intensity) was -1.15.

In the case of TTTATCTACCTTTGTACCTTTAGTATCTAG, the binding signal (log2 normalized intensity) came to 2.9.

Take GGATGGAATTTAAAACATCTTTGAAGAGCA: the binding signal (log2 normalized intensity) was -0.825.

On to GGAGTCTGGCTGCCCTGGGGTGACAGCTTT, for which the binding signal (log2 normalized intensity) amounted to 0.0136.

Take GCGCAGACGGCGGATCCTCCCAGCCTGGAG: the binding signal (log2 normalized intensity) was -1.08.

In the case of GACTGTCTTAGGAAAGAACAGGTCAAAGGT, the binding signal (log2 normalized intensity) amounted to 3.91.

For AATATCTCAGCACATGGCAGTGTACACTAG, the binding signal (log2 normalized intensity) stood at 0.444.

With CTGAACATGGTGACACACACCTCCAGCCAC, the binding signal (log2 normalized intensity) is -1.15.

With GGCTGTTTGGGAACCGTTAGCAACCGGAAG, the binding signal (log2 normalized intensity) was -0.705.

In the case of AAGGCCAGAGAAAGAGAGAGTTAGTTCTGC, the binding signal (log2 normalized intensity) is -1.12.

CGGGTGAAGGTTAAATAGCTCATTAAGCTT: the binding signal (log2 normalized intensity) was -0.974.

As to GTCCTGGCAGGCTTCGAAAAATGGGTCTGG, the binding signal (log2 normalized intensity) was -0.712.

In the case of ACCCACCCACACCTCCCCTTTGTTTAACTT, the binding signal (log2 normalized intensity) worked out at 2.8.

For the sequence ACAGATGTAGACATTGGAATGCGGGCTCCA, the binding signal (log2 normalized intensity) is -0.394.

For the sequence ATAAAACACTGACATCATCGCAGAAAGCTC, the binding signal (log2 normalized intensity) is -1.11.

With ATTCTCCCTGCAGTCCTCTGCTTATCTGGC, the binding signal (log2 normalized intensity) amounted to 0.692.

With TTTTAAGTCACCAGATGAGATAGGAGGTCA, the binding signal (log2 normalized intensity) stood at 2.05.

In the case of AATGTGGGGAGCACATGGCATGATCCCTGA, the binding signal (log2 normalized intensity) was -0.636.

On to ACATGATAGGTTACCTTGACCAAAGTACAG, for which the binding signal (log2 normalized intensity) worked out at 2.42.

As for GTCAGGAGTACAGGTAGGATCAAGGGTGGA, the binding signal (log2 normalized intensity) is -0.0481.

For TTACTGGTGAACATAAATCGCAAATATTTA, the binding signal (log2 normalized intensity) was -1.07.

AAAAGAAGAAAAAACAGGTGTTCTTTCCCT: the binding signal (log2 normalized intensity) was -1.17.

GCATGGTTTACTGAAATAGGTAAGCTGGCC: the binding signal (log2 normalized intensity) came out at 0.0341.

For TGAGTGCTTCAGTCCAAAAAGTGGTGGTGT, the binding signal (log2 normalized intensity) was determined as 1.92.

For TCCTGAGCAGTCCCTTCCCCCCTCCTCATT, the binding signal (log2 normalized intensity) came out at 4.58.

As for CAAGGAAAACTACACTCTTGCTAAACCCTC, the binding signal (log2 normalized intensity) is -1.14.

With TGAAGCGACCCCTCGAGGCAACCTTTGACC, the binding signal (log2 normalized intensity) was 8.54.

With TAATCAACACTGACAGATTCCTGCTAACAG, the binding signal (log2 normalized intensity) is -1.02.

On to GAGACCAAATATTAGAACAAACGACGCTCC, for which the binding signal (log2 normalized intensity) was -1.07.

GGTTTGAATCCCGGGAATCCTCAGCCTTCT: the binding signal (log2 normalized intensity) was -1.09.

In the case of TAAACTAAGATATTGGTAAGTTAAGTAACT, the binding signal (log2 normalized intensity) is -0.668.

For the sequence AAGATGAAAGACGAAAGGGACTTTGATCTT, the binding signal (log2 normalized intensity) came to 6.37.

For the sequence GCCAGATTGAGAAACACATTCTTAGACAAC, the binding signal (log2 normalized intensity) was -0.897.

Consider CTGGGGCCGGGAGCAGGGAGCGAGACGCTG, for which the binding signal (log2 normalized intensity) is -1.06.

For the sequence CCCAGAGGTCAAACTATCTGAGGTGGTCCA, the binding signal (log2 normalized intensity) is 1.71.

In the case of AAGGATTATTACATGTTTACCCACATACAA, the binding signal (log2 normalized intensity) amounted to 0.684.

On to ACTGGCCCATTAGAACAAAGATCAAAGCAG, for which the binding signal (log2 normalized intensity) is -1.24.

Regarding GGCGCGGGATCCTCTTTCCTGCAGGCCCAT, the binding signal (log2 normalized intensity) is -1.06.

Consider GGTATCAGAGTGGAGCCAGATGCACACAGG, for which the binding signal (log2 normalized intensity) was -1.11.

TGGTGGCACAGGGAATGGCTCGTATGAATG: the binding signal (log2 normalized intensity) is 0.46.

With AGAAACGCCTGGCGCTTATCTGAGCACACA, the binding signal (log2 normalized intensity) was -1.2.

As for AATGATATGGACAATGAAATTCAGGCTGAG, the binding signal (log2 normalized intensity) is -0.673.

For CTTTCTCTCTCCCTTCCTGGAGCCAAGGTT, the binding signal (log2 normalized intensity) amounted to 1.81.

With TTTGCAATGTAAACATCAAGGAAGAGAACT, the binding signal (log2 normalized intensity) is -0.31.

Take TTCTCCCCCGATAAGGCTGCCTCCTATCCT: the binding signal (log2 normalized intensity) stood at 2.59.

Regarding TTATCATTACTTCTCAACTGATATGGCTCT, the binding signal (log2 normalized intensity) amounted to 1.03.

Turning to CAGCGTGAACTTTGACATGAGAGAAAAGAA, the binding signal (log2 normalized intensity) came out at 2.7.

Regarding AACTGGTTCTGTGGAATTTGTGCTTATTTC, the binding signal (log2 normalized intensity) worked out at 1.79.

Regarding CATGTGCCAGATATGCCGAGAATGCAGCCT, the binding signal (log2 normalized intensity) is -1.1.

On to TGATGTTCCCCCTCCCTGGACTCCTGGGAC, for which the binding signal (log2 normalized intensity) was found to be 4.16.

Regarding GTGAGAATCCCAGCTCGTGGGCATGCCTCC, the binding signal (log2 normalized intensity) is -1.13.

Regarding GGGCCACGCCCTGCACCCTACGTAAATGCA, the binding signal (log2 normalized intensity) is -1.03.

On to CACAAACATCACCTACCTGACTCCTTAGGG, for which the binding signal (log2 normalized intensity) is -1.16.

As to GTTTTCCCATTCATGACATTGATTTATTGT, the binding signal (log2 normalized intensity) was determined as 2.01.

With CACTGTTGCCCCTTCCAAAGTCCACCTCAA, the binding signal (log2 normalized intensity) was 4.43.

As to CTAGGAGAGTCCGGGGCAAACAAGGGCAAC, the binding signal (log2 normalized intensity) is -0.823.

ATGATACAGCCTTTTGCCCCCAGGCTGCAA: the binding signal (log2 normalized intensity) came out at 3.19.

In the case of TCTATTCTATCTGTATTCTGAAGCCCTACA, the binding signal (log2 normalized intensity) was -0.784.
